The values below come from the supplement of paper PMC4967469.

As a reminder, the pIC50 is the negative decadic logarithm of the IC50, by convention in mol/L.

Holding throughout (test): Viability of human cancer cell lines after 72 h of drug (GDSC screen)
Compound in one assay: C#Cc1cccc(Nc2ncnc3cc(OC)c(OCCCCCCC(=O)NO)cc23)c1 [CUDC-101]
The conditions noted are these: top dose 5.12 µM; top dose inferred. The protocol: (§1)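 Human cancer cell lines in 384-well plates, medium with 10% serum, drug for 72 h over a 256-fold dose range (nine 2-fold or five 4-fold steps up to the top dose). Adherent lines were fixed and stained with the nucleic acid dye Syto60, suspension lines read with resazurin; signal relative to control wells, capped at 0 and 100%. One two-parameter sigmoid per drug and line, fitted in a mixed model over all curves with the slope shared within a line.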

Compound in the next assay: CC(C)(C)c1cc(NC(=O)Nc2ccc(-c3cn4c(n3)sc3cc(OCCN5CCOCC5)ccc34)cc2)no1 [AC220]
The conditions noted are these: top dose 1.024 µM; top dose inferred. The protocol:
as §1

Compound in another assay: COc1cc(F)c(F)c(Nc2ccc(I)cc2F)c1NS(=O)(=O)C1(C[C@H](O)CO)CC1 [RDEA119]
The conditions noted are these: top dose 5 µM, top dose inferred. The protocol: as §1

Compound in another assay: Fc1cc(-c2ccnc(Nc3ccc(-n4cnc(N5CCOCC5)n4)cc3)n2)cc(N2CCOCC2)c1 [JNK-9L]
The conditions noted are these: top dose 5.12 µM; top dose inferred. The protocol: as §1

Compound in the next assay: NCC(=O)Nc1ccc(-n2nc(C(F)(F)F)cc2-c2ccc3c(ccc4ccccc43)c2)cc1 [OSU-03012]
Particulars: top dose 16 µM; top dose inferred. The protocol:
as §1

Compound in another assay: O=c1[nH]cc(F)c(=O)[nH]1 [5-Fluorouracil]
The conditions noted are these: top dose 32 µM; top dose inferred. The protocol:
as §1

Compound in a further assay: OC[C@H](Cc1ccccc1)Nc1nc(Oc2ccc3c(c2)CCC3)nc2c1ncn2Cc1ccc(-c2ccccc2)cc1 [QS11]
Particulars: top dose 10.24 µM. The protocol:
as §1

pIC50: −log10 of the molar value. IC50 is the fitted dose that halves viability relative to control wells, and lower means more sensitive; fits outside the tested doses are given as limits. For AUC the same curve is integrated over the 256-fold range of doses and scaled to a fraction; values near 1 show little effect. For part of these data: An inferred top dose comes from the curve model; the source does not state it. For part of these data: Drugs with an entry number were screened twice under separate entries, and the two screens often disagree.

“NCI-H2029 (small cell lung carcinoma, adherent)”: the AUC turned out to be 0.694 in the assay with CUDC-101; 0.99 with AC220; 0.992 with RDEA119 (screen: GDSC drug entry 1526); 0.798 with JNK-9L; 0.916 with OSU-03012; 0.924 with 5-Fluorouracil. Also, in the assay with QS11, the AUC came to 0.992. For the same cell line, the negative logarithm of the IC50 (pIC50) is 5.98 in the assay with CUDC-101; under 5.99 with AC220; under 5.30 in the assay with RDEA119 (screen: GDSC drug entry 1526); 5.67 with JNK-9L; under 4.80 with OSU-03012; under 4.49 in the assay with 5-Fluorouracil. Besides, the pIC50 with QS11 is under 4.99.

Turning to “NCI-H2030 (lung adenocarcinoma, adherent)”, the AUC is 0.658 in the assay with CUDC-101; 0.96 with AC220; 0.86 with RDEA119 (screen: GDSC drug entry 1014); 0.625 with RDEA119 (screen: GDSC drug entry 1526); 0.45 in the assay with JNK-9L; 0.735 in the assay with OSU-03012. The AUC with 5-Fluorouracil amounted to 0.834; with QS11, 0.78. Moreover, the negative-log IC50 (pIC50) is 6.03 with CUDC-101; under 5.99 with AC220; under 5.30 in the assay with RDEA119 (screen: GDSC drug entry 1014); 6.14 in the assay with RDEA119 (screen: GDSC drug entry 1526); 6.64 with JNK-9L; 5.28 in the assay with OSU-03012. Further, the pIC50 with 5-Fluorouracil is 4.60; in the assay with QS11, 5.32.

For the cell line NCI-H2052 (mesothelioma, adherent), the AUC with CUDC-101 worked out at 0.92; in the assay with AC220, 0.971; with RDEA119 (screen: GDSC drug entry 1014), 0.905; with JNK-9L it was 0.619; with OSU-03012, 0.806; with 5-Fluorouracil, 0.928. Besides, in the assay with QS11, the AUC is 0.978. Besides, the pIC50 with CUDC-101 is under 5.29; with AC220 it was under 5.99; with RDEA119 (screen: GDSC drug entry 1014), under 5.30; with JNK-9L, 6.13; with OSU-03012, 4.96; in the assay with 5-Fluorouracil, under 4.49. In addition, the pIC50 in the assay with QS11 is under 4.99.

With “NCI-H2081 (small cell lung carcinoma, suspension)”, the AUC with CUDC-101 came to 0.842; with AC220, 0.955; with RDEA119 (screen: GDSC drug entry 1014), 0.988; with RDEA119 (screen: GDSC drug entry 1526), 0.979; with JNK-9L, 0.752; with OSU-03012 it was 0.808. Moreover, the AUC was determined as 0.908 in the assay with 5-Fluorouracil and 0.948 with QS11. The pIC50 in the assay with CUDC-101 was 5.41; with AC220, under 5.99; in the assay with RDEA119 (screen: GDSC drug entry 1014), under 5.30; with RDEA119 (screen: GDSC drug entry 1526) it was under 5.30; with JNK-9L, 5.75; with OSU-03012, 5.05. The pIC50 with 5-Fluorouracil is under 4.49; with QS11, under 4.99.

On to “NCI-H2085 (lung adenocarcinoma, adherent)”, for which the AUC with CUDC-101 turned out to be 0.721; with AC220, 0.975; in the assay with RDEA119 (screen: GDSC drug entry 1014) it was 0.872; in the assay with RDEA119 (screen: GDSC drug entry 1526), 0.921; with JNK-9L, 0.644; with OSU-03012, 0.724. For the same cell line, the AUC is 0.716 with 5-Fluorouracil and 0.986 in the assay with QS11. Besides, the pIC50 with CUDC-101 was 5.84; in the assay with AC220 it was under 5.99; in the assay with RDEA119 (screen: GDSC drug entry 1014), under 5.30; with RDEA119 (screen: GDSC drug entry 1526), under 5.30; with JNK-9L, 6.08; with OSU-03012, 5.34. For the same cell line, the negative logarithm of the IC50 (pIC50) is 5.06 with 5-Fluorouracil and under 4.99 in the assay with QS11.

Take “NCI-H2110 (non-small cell lung carcinoma, adherent)”: the AUC was determined as 0.583 with CUDC-101; 0.983 in the assay with AC220; 0.899 with RDEA119 (screen: GDSC drug entry 1014); 0.87 with RDEA119 (screen: GDSC drug entry 1526); 0.603 in the assay with JNK-9L; 0.735 in the assay with OSU-03012. In addition, the AUC with 5-Fluorouracil came out at 0.766; in the assay with QS11 it was 0.909. The pIC50 is 6.26 with CUDC-101; under 5.99 with AC220; under 5.30 with RDEA119 (screen: GDSC drug entry 1014); 5.32 with RDEA119 (screen: GDSC drug entry 1526); 6.21 with JNK-9L; 5.32 with OSU-03012. The pIC50 with 5-Fluorouracil is 4.92; in the assay with QS11, under 4.99.

Take “NCI-H2122 (lung adenocarcinoma, adherent)”: the AUC with CUDC-101 amounted to 0.818; with AC220 it was 0.987; with RDEA119 (screen: GDSC drug entry 1526), 0.714; with JNK-9L, 0.482; with OSU-03012, 0.71; with 5-Fluorouracil, 0.943. The AUC with QS11 is 0.711. Also, the negative-log IC50 (pIC50) with CUDC-101 is 5.58; in the assay with AC220 it was under 5.99; with RDEA119 (screen: GDSC drug entry 1526), 5.92; with JNK-9L, 6.54; in the assay with OSU-03012, 5.43; with 5-Fluorouracil it was under 4.49. The pIC50 in the assay with QS11 was 5.62.

As to “NCI-H2135 (non-small cell lung carcinoma, adherent)”, the AUC was 0.624 with CUDC-101; 0.981 in the assay with AC220; 0.991 with RDEA119 (screen: GDSC drug entry 1014); 0.99 in the assay with RDEA119 (screen: GDSC drug entry 1526); 0.701 with JNK-9L; 0.799 with OSU-03012. Also, the results for the AUC with 5-Fluorouracil and with QS11 were 0.764 and 0.933, respectively. Further, the pIC50 with CUDC-101 is 6.16; with AC220 it was under 5.99; with RDEA119 (screen: GDSC drug entry 1014), under 5.30; with RDEA119 (screen: GDSC drug entry 1526), under 5.30; in the assay with JNK-9L, 5.94; with OSU-03012 it was 5.13. Also, the pIC50 with 5-Fluorouracil is 4.95; in the assay with QS11, under 4.99.

With “NCI-H2141 (small cell lung carcinoma, suspension)”, the AUC with CUDC-101 stood at 0.799; with AC220 it was 0.987; in the assay with RDEA119 (screen: GDSC drug entry 1014), 0.99; in the assay with RDEA119 (screen: GDSC drug entry 1526) it was 0.989; with JNK-9L, 0.675; with OSU-03012, 0.799. The figures for the AUC with 5-Fluorouracil and with QS11 were 0.891 and 0.96, respectively. Also, the pIC50 in the assay with CUDC-101 is 5.62; with AC220 it was under 5.99; with RDEA119 (screen: GDSC drug entry 1014), under 5.30; with RDEA119 (screen: GDSC drug entry 1526), under 5.30; in the assay with JNK-9L, 6.01; with OSU-03012, 5.13. In addition, the figures for the negative logarithm of the IC50 (pIC50) in the assay with 5-Fluorouracil and with QS11 were under 4.49 and under 4.99, respectively.
